Screen size: about 44,000 compounds; about 340 (0.77%) were called active. About 5% were inconclusive and are not listed. The call rests on the fitted dose curve; in most records, active means well fitted inhibition curve with a large enough effect; inconclusive means small, poorly fitted or top-dose-only effect; inactive means flat fitted curve, though single readings scatter. This is one part of the list.
Assay: Acumen qHTS Assay for Inhibitors of the mTORC1 Signaling Pathway in MEF (Tsc2-/-, p53-/-) Cells: Sytravon;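 further: plate controls were DMSO for no effect and rapamycin for full effect; nearly all actives have a fitted effect of over 50% in size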
Conditions: phospho-rpS6 immunofluorescence/PI, 24 h; series mostly up to 38.3 µM; activity change, negative = inhibition: at the top concentration
How it was run: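 Tsc2-/-, p53-/- MEFs (empty-vector stable line) in DMEM + 10% FBS were treated with compounds 24 h at 37 degree Celsius, fixed, and immunostained for phospho-rpS6 (Alexa-488) with propidium iodide counterstain. Laser-scanning cytometry gave % positive cells, normalized against 7.5 nM rapamycin and DMSO.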

Activity change, negative = inhibition, inactive:
CCn1c(=O)c2cc(C(=O)Nc3cccc(C(F)(F)F)c3)sc2c2ccccc21 -14.9%
CCNC(=O)CCCN1C(=O)CCn2nc(-c3cccn3C)cc21 -0.31%
CCC(Sc1nc2nccnc2c(=O)n1Cc1ccccc1Cl)C(=O)NC1CCCCC1 (configuration not stated) 9.67%
O=S(=O)(c1ccc(C2CCCCC2)cc1)N1CCN(c2cc(Cl)ccc2Cl)CC1 0.236%
COc1ccc(-n2c(/C=C/c3cccc4ccccc34)nc3ccccc3c2=O)cc1OC 2.61%
Cc1ccc(CNC(=O)CSCc2ccccc2C)cc1 11%
Cc1ccc2nc(NCc3ccccc3)c3nncn3c2c1 -3.59%
CCn1cc(C(=O)NCCc2ccc(Cl)cc2)c(=O)c2cc(S(=O)(=O)N(C)C3CCCCC3)ccc21 0.6%
Cc1cccc(N(CC(=O)NCCc2ccccc2)S(=O)(=O)c2ccccc2)c1C -25.8%
COc1ccc(CCNC(=O)c2cc3c(=O)n4cccc(C)c4nc3n2C)cc1 -0.369%
Cc1ccc(-c2csc(-c3c(N)c(C(=O)c4ccc5c(c4)OCO5)n4ccccc34)n2)cc1C 0.128%
Cc1cccc(CSCCNC(=O)C2CCN(S(=O)(=O)Cc3ccccc3)CC2)c1 4.44%
COc1ccc2c(C)c(CCC(=O)NCc3cccc(Cl)c3)c(=O)oc2c1 0.309%
CCC(CC)C(=O)Nc1nnc(S(=O)(=O)N(C)c2cc(C)cc(C)c2)s1 3.64%
Cc1cc(C)cc(-n2ccn(CC(=O)NCCc3ccccc3)c(=O)c2=O)c1 4.6%
COc1cc2c(cc1OC)C(COc1ccc3c(C)cc(=O)oc3c1)N(C(=O)Cc1ccc(F)cc1)CC2 (configuration not stated) 6.62%
CCOC(=O)c1c(NC(C)=O)c2c3c(sc2n1Cc1c(C)cc(C)cc1C)CCCC3 -10%
CCOc1ccc(N(CC(=O)NCc2ccc(OC)cc2)S(=O)(=O)c2c(C)[nH]c(=O)[nH]c2=O)cc1 -6.2%
COc1cccc(C(=O)N(Cc2cccc(F)c2)C2CCS(=O)(=O)C2)c1 (configuration not stated) 3.08%
COc1ccc(Cn2ccnc2SCC(=O)Nc2ccc3c(c2)OCCO3)cc1 2.73%
Cc1ccc2c(c1)N(CC(=O)Nc1ccccc1C(F)(F)F)C(=O)c1cccnc1O2 -0.948%
Cc1c(Cl)cccc1NC(=O)c1oc2ccc(S(=O)(=O)N3CCCCCC3)cc2c1C 11.4%
CCOC(=O)c1cc2c(=O)n3ccccc3nc2n(Cc2ccco2)c1=NC(=O)c1ccc(C(C)(C)C)cc1 16.4%
COc1cccc(OC)c1C(=O)Nc1ccc(-c2nc3ncccc3o2)cc1 -0.45%
O=C(Nc1cccc(F)c1)c1ccc2oc(=O)n(Cc3ccccc3)c2c1 9.79%
O=C(Cn1c(=O)n(-c2ccccc2)c(=O)c2c3c(sc21)CCC3)c1ccc(F)cc1 -10.4%
O=C(NCc1ccccc1)c1ccc2c(c1)N(Cc1ccccc1F)C(=O)c1ccccc1S2=O (configuration not stated) 4.16%
Cc1ccc(Sc2ccc(N3CCC(C(=O)Nc4cc(C)cc(C)c4)CC3)nn2)cc1 -3.91%
Cc1ccc(C2CC(=O)n3nc(-c4ccc(Cl)cc4)nc3S2)cc1 (configuration not stated) 7.5%
CCc1ccc(NC(=O)CSc2nc3c([nH]c4ccccc43)c(=O)n2-c2ccc(C)cc2)cc1 -10.7%
Cc1ccc(CNC(=O)CCS(=O)(=O)c2cc3c4c(c2)CCN4C(=O)CC3)cc1 0.311%
CCOC(=O)c1scc(-c2ccccc2)c1S(=O)(=O)N1CCN(c2ccc(Cl)cc2)CC1 -14.9%
Cc1ccc(NC(=O)c2ccc(NC(=O)N3CCSc4ncccc43)cc2)c(Cl)c1 -1.27%
COc1cccc(N2CCN(C(=O)c3cnc4c(-c5ccccc5)c(C)nn4c3C)CC2)c1 1.89%
COc1ccccc1C(=O)Nc1c(C(=O)Nc2cc(Cl)ccc2C)sc2nc(C)cc(C)c12 6.35%
COc1cccc(CN2C(=O)c3ccccc3Sc3ccc(C(=O)NCc4ccccc4)cc32)c1 -8.85%
O=C(Nc1ccccc1)c1cnc(N2CCCCC2)c2ccccc12 0.7%
COc1ccc(-c2cc(C)no2)cc1S(=O)(=O)N1CCN(c2cccc(C)c2)C(C)C1 (configuration not stated) -9.19%
Cc1ccccc1NC(=O)NCCc1c[nH]c2ccccc12 1.87%
COc1cccc2cc(C(=O)N3CCN(c4cc(C)ccc4C)CC3)c(=O)oc12 8.46%
Fc1ccccc1Nc1c2c(nc3ccccc13)CCC2 3.11%
Cc1nc(SCC(=O)N2CCN(c3ccccc3)CC2)[nH]c(=O)c1C -2.25%
CCc1ccccc1NC(=O)CN(C)S(=O)(=O)c1cccc2nsnc12 0.148%
COc1ccc(-c2ccc(NS(=O)(=O)c3ccc(NC(C)=O)cc3)cc2)nn1 -2.88%
CCN(CC)c1ccc(NC(=O)c2c(C)nn(-c3ccc(F)cc3)c2-n2cccc2)c(C)c1 -10.2%
COc1ccc(OC)c(NC(=O)c2c(NCc3cccs3)sc3c2CCCCC3)c1 -0.786%
COc1ccc(-c2noc(N3CCC(C(=O)Nc4cccc(C)c4C)CC3)n2)cc1 -3.41%

Reference: PubChem BioAssay AID493208 (National Center for Advancing Translational Sciences (NCATS), 2011)
